# According to the supplement of paper PMC4604168 (melanoma cell lines):
# Some of the results follow. Repeats are few or missing, and single values can be far off.
# Assays:
# Assay in all cases: cell count relative to DMSO control; melanoma cells; higher = more viable cells
# Settings in all cases: library dose: low library concentration; 72 h; first compound 0.4 µM
# WM115 = test system: WM115
# WM1716 = test system: WM1716
# WM1745 = test system: WM1745
# WM3526 = test system: WM3526
# WM3619 = test system: WM3619
# WM451Lu = test system: WM451Lu
# 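Note: cell number obtained by counting DAPI-stained nuclei in high-throughput microscope images with image analysis software, screen run in 1,536-well plates.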
Structure (SMILES),cell count (WM115),cell count (WM1716),cell count (WM1745),cell count (WM3526),cell count (WM3619),cell count (WM451Lu)
C[C@@H](N)c1ccc(C(=O)Nc2ccnc3[nH]ccc23)cc1 + c1cc(-c2cnn3cc(-c4ccc(OCCN5CCCCC5)cc4)cnc23)ccn1 [Dorsomorphin] (partner dose 0.4 µM),97.2%,71.6%,73%,109%,93.8%,91.2%
CCCCCCCCCCCCCCCCCCOP(=O)([O-])OC1CC[N+](C)(C)CC1 [Perifosine] + O=C(O)c1ccc2c(c1)nc(Nc1cccc(Cl)c1)c1ccncc12 [CX4945] (partner dose 0.4 µM),106%,97.9%,107%,90.5%,98.3%,99.7%
C[C@@H](N)c1ccc(C(=O)Nc2ccnc3[nH]ccc23)cc1 + COc1cc2c(Oc3ccc4[nH]c(C)cc4c3F)ncnc2cc1OCCCN1CCCC1 [cediranib] (partner dose 0.4 µM),96.7%,62.9%,80.8%,110%,97%,89.1%
CCCCCCCCCCCCCCCCCCOP(=O)([O-])OC1CC[N+](C)(C)CC1 [Perifosine] + CC(C)CCN1c2nc(Nc3cc(F)c(O)c(F)c3)ncc2N(C)C(=O)C1C [BID1870] (partner dose 0.2 µM),87.2%,103%,104%,78%,104%,108%
Cn1sc(=O)n(Cc2ccccc2)c1=O + CNC(=O)c1cc(Oc2ccc(NC(=O)Nc3ccc(Cl)c(C(F)(F)F)c3)cc2)ccn1 [sorafenib] (partner dose 0.4 µM),109%,89.9%,116%,101%,77.2%,97.1%
Cn1sc(=O)n(Cc2ccccc2)c1=O + COc1cc(Nc2ncc(F)c(Nc3ccc4c(n3)NC(=O)C(C)(C)O4)n2)cc(OC)c1OC [Tamatinib] (partner dose 0.4 µM),91.6%,91.9%,65.5%,80.1%,61.1%,90%
C[C@@H](N)c1ccc(C(=O)Nc2ccnc3[nH]ccc23)cc1 + O=C(O)c1ccc2c(c1)nc(Nc1cccc(Cl)c1)c1ccncc12 [CX4945] (partner dose 0.4 µM),119%,69.4%,85.6%,119%,77.2%,71.5%
Cn1sc(=O)n(Cc2ccccc2)c1=O + CCc1ccc(CCOc2ccc(CC3SC(=O)NC3=O)cc2)nc1 [pioglitazone] (partner dose 2 µM),99.3%,102%,84.5%,92.7%,85.8%,84.6%
CCCCCCCCCCCCCCCCCCOP(=O)([O-])OC1CC[N+](C)(C)CC1 [Perifosine] + CC1(C)NC(=O)N(c2ccc([N+](=O)[O-])c(C(F)(F)F)c2)C1=O [nilutamide] (partner dose 1 µM),77%,65.7%,137%,70.9%,85%,74.4%
CCCCCCCCCCCCCCCCCCOP(=O)([O-])OC1CC[N+](C)(C)CC1 [Perifosine] + Cn1c(=O)n(-c2ccc(C(C)(C)C#N)cc2)c2c3cc(-c4cnc5ccccc5c4)ccc3ncc21 [NVP-BEZ235] (partner dose 0.004 µM),92.9%,98.5%,106%,91.9%,83%,123%
C[C@@H](N)c1ccc(C(=O)Nc2ccnc3[nH]ccc23)cc1 + CC(C)(C)c1cnc(CSc2cnc(NC(=O)C3CCNCC3)s2)o1 [SNS-032] (partner dose 0.01 µM),96.2%,63.7%,72.3%,96.7%,47.2%,109%
C[C@@H](N)c1ccc(C(=O)Nc2ccnc3[nH]ccc23)cc1 + Clc1ccc(Nc2nnc(Cc3ccncc3)c3ccccc23)cc1 [vatalanib] (partner dose 2 µM),101%,76.8%,79.6%,146%,60.9%,59.3%
Cn1sc(=O)n(Cc2ccccc2)c1=O + C[C@@H](Oc1cc(-c2cnn(C3CCNCC3)c2)cnc1N)c1c(Cl)ccc(F)c1Cl [Crizotinib] (partner dose 0.2 µM),94.3%,96.1%,94.8%,87.5%,97.9%,114%
C[C@@H](N)c1ccc(C(=O)Nc2ccnc3[nH]ccc23)cc1 + CC(C)C[C@H](NC(=O)[C@H](Cc1ccccc1)NC(=O)c1cnccn1)B(O)O [Bortezomib] (partner dose 0.001 µM),115%,41.6%,65.3%,111%,27.9%,96.2%
C[C@@H](N)c1ccc(C(=O)Nc2ccnc3[nH]ccc23)cc1 + CC(C)CCN1c2nc(Nc3cc(F)c(O)c(F)c3)ncc2N(C)C(=O)C1C [BID1870] (partner dose 0.2 µM),113%,79.6%,89%,99.3%,122%,94.4%
CCCCCCCCCCCCCCCCCCOP(=O)([O-])OC1CC[N+](C)(C)CC1 [Perifosine] + C=C(c1ccc(C(=O)O)cc1)c1cc2c(cc1C)C(C)(C)CCC2(C)C [Bexarotene] (partner dose 2 µM),97.2%,85.6%,78.3%,79.7%,86.6%,82.3%

Structure (SMILES),cell count (WM115),cell count (WM1716),cell count (WM1745),cell count (WM3526),cell count (WM3619),cell count (WM451Lu)
CCCCCCCCCCCCCCCCCCOP(=O)([O-])OC1CC[N+](C)(C)CC1 [Perifosine] + Cc1cc(N2CCOCC2)cc2[nH]c(-c3c(NC[C@@H](O)c4cccc(Cl)c4)cc[nH]c3=O)nc12 [BMS536924] (partner dose 0.2 µM),116%,89.4%,64.3%,95.6%,91.5%,114%
CCCCCCCCCCCCCCCCCCOP(=O)([O-])OC1CC[N+](C)(C)CC1 [Perifosine] + COC(=O)c1sccc1S(=O)(=O)Nc1ccc(Nc2ccccc2)cc1OC [GSK0660] (partner dose 1 µM),108%,103%,96.2%,99%,105%,105%
C[C@@H](N)c1ccc(C(=O)Nc2ccnc3[nH]ccc23)cc1 + CN(C)S(=O)(=O)c1ccc2c(c1)/C(=C/c1cc3c([nH]1)CCCC3)C(=O)N2 [SU6656] (partner dose 0.4 µM),66.3%,79.9%,62.1%,97.9%,71.1%,101%
Cn1sc(=O)n(Cc2ccccc2)c1=O + COC(=O)c1sccc1S(=O)(=O)Nc1ccc(Nc2ccccc2)cc1OC [GSK0660] (partner dose 1 µM),96.4%,104%,97.4%,100%,63.3%,94.5%
Cn1sc(=O)n(Cc2ccccc2)c1=O + Cn1c(=O)n(-c2ccc(C(C)(C)C#N)cc2)c2c3cc(-c4cnc5ccccc5c4)ccc3ncc21 [NVP-BEZ235] (partner dose 0.004 µM),105%,80.7%,97.3%,90.8%,76.6%,95.8%
C[C@@H](N)c1ccc(C(=O)Nc2ccnc3[nH]ccc23)cc1 + C=C(c1ccc(C(=O)O)cc1)c1cc2c(cc1C)C(C)(C)CCC2(C)C [Bexarotene] (partner dose 2 µM),105%,65%,72.3%,91.9%,98.2%,41.8%
CCCCCCCCCCCCCCCCCCOP(=O)([O-])OC1CC[N+](C)(C)CC1 [Perifosine] + CC(=O)O[C@@]12CO[C@@H]1C[C@H](O)[C@@]1(C)C(=O)[C@H](O)C3=C(C)[C@@H](OC(=O)[C@H](O)[C@@H](NC(=O)OC(C)(C)C)c4ccccc4)C[C@@](O)([C@@H](OC(=O)c4ccccc4)[C@H]21)C3(C)C [Docetaxel] (partner dose 0.0001 µM),69.4%,38.8%,54.2%,47.1%,68.4%,80.3%
CCCCCCCCCCCCCCCCCCOP(=O)([O-])OC1CC[N+](C)(C)CC1 [Perifosine] + OCc1c[nH]c2ccccc12 [Indole-3-carbinol] (partner dose 0.8 µM),99.4%,75.6%,92%,82.3%,111%,103%
Cn1sc(=O)n(Cc2ccccc2)c1=O + C[C@]1(O)C[C@@H](c2nc(-c3ccc4ccc(-c5ccccc5)nc4c3)c3c(N)nccn32)C1 [OSI906] (partner dose 0.4 µM),101%,97.8%,73.4%,110%,94.5%,83.4%
CCCCCCCCCCCCCCCCCCOP(=O)([O-])OC1CC[N+](C)(C)CC1 [Perifosine] + COc1cc(N2CCC(N3CCN(C)CC3)CC2)ccc1Nc1ncc(Cl)c(Nc2ccccc2S(=O)(=O)C(C)C)n1 [NVP-TAE684] (partner dose 0.08 µM),87%,78.1%,73.1%,89.5%,97.9%,88.5%
C[C@@H](N)c1ccc(C(=O)Nc2ccnc3[nH]ccc23)cc1 + CN(c1ncccc1CNc1nc(Nc2ccc3c(c2)CC(=O)N3)ncc1C(F)(F)F)S(C)(=O)=O [PF562271] (partner dose 0.08 µM),95.4%,48.5%,54.2%,105%,96.5%,88.8%
C[C@@H](N)c1ccc(C(=O)Nc2ccnc3[nH]ccc23)cc1 + C[C@]1(O)C[C@@H](c2nc(-c3ccc4ccc(-c5ccccc5)nc4c3)c3c(N)nccn32)C1 [OSI906] (partner dose 0.4 µM),112%,66.3%,58.9%,99.7%,79.7%,89%
Cn1sc(=O)n(Cc2ccccc2)c1=O + Nc1nc(F)nc2c1ncn2[C@@H]1O[C@H](CO)[C@@H](O)[C@@H]1O [fludarabine] (partner dose 0.2 µM),90.2%,98.2%,116%,23.2%,85.6%,45.7%
CCCCCCCCCCCCCCCCCCOP(=O)([O-])OC1CC[N+](C)(C)CC1 [Perifosine] + CCCCCCCCCCCC1=C(O)C(=O)C=C(O)C1=O [Embelin] (partner dose 1.2 µM),89.3%,110%,90.2%,103%,89.1%,81.9%
Cn1sc(=O)n(Cc2ccccc2)c1=O + O=C(CCCCCCC(=O)Nc1ccccc1)NO [vorinostat] (partner dose 0.08 µM),109%,120%,92.1%,83%,82.8%,102%
C[C@@H](N)c1ccc(C(=O)Nc2ccnc3[nH]ccc23)cc1 + CC(=O)O[C@@]12CO[C@@H]1C[C@H](O)[C@@]1(C)C(=O)[C@H](O)C3=C(C)[C@@H](OC(=O)[C@H](O)[C@@H](NC(=O)OC(C)(C)C)c4ccccc4)C[C@@](O)([C@@H](OC(=O)c4ccccc4)[C@H]21)C3(C)C [Docetaxel] (partner dose 0.0001 µM),65.8%,33.4%,56.1%,51.4%,64.5%,62.2%
